Results reported in the supplement of paper PMC12217912.
The other results are listed elsewhere or left out. Sequences were assembled here from the parent chain. Inactive controls read about 0.05.

B1: TEV protease; numbered along this chain (parent)
chain: MGESLFKGPRDYNPISSSICHLTNESDGHTTSLYGIGFGPFIITNKHLFRRNNGTLVVQSLHGVFKVKDTTTLQQHLVDGRDMIIIRMPKDFPPFPQKLKFREPQREERICLVTTNFQTKSMSSMVSDTSCTFPSGDGIFWKHWIQTKDGQCGSPLVSTRDGFIVGIHSASNFTNTNNYFTSVPKNFMELLTNQEAQQWVSGWRLNADSVLWGGHKVFMVKPEEPFQPVKEATQL

Variants of: B1
Test: raw area under fraction-flipped curve 0-4 h after induction (AUC4h, not background-subtracted), DNA-recorder readout of cleavage of the substrate (dimensionless); higher = more cleavage of the substrate by the protease variant
Conditions: temperature: 34 °C; time window: 0-4 h after rhamnose induction
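Note: Bxb1 expression induced with 0.2% (w/v) L-rhamnose at OD600 near 0.5, cultures sampled hourly, flipped fraction per protease–substrate barcode pair counted by paired-end Illumina sequencing.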

Row | Variant | area with substrate ENLYFQC | area with substrate ENLYFQD | area with substrate ENLYFQG | area with substrate ENLYFQI | area with substrate ENLYFQL | area with substrate ENLYFQM | area with substrate ENLYFQN | area with substrate ENLYFQP | area with substrate ENLYFQS | area with substrate ENLYFQT | area with substrate ENLYFQW | area with substrate ENLYFQY | area with substrate ENLYFQH | area with substrate ENLYFQK | area with substrate ENLYFQR | area with substrate ENLYFQV | area with substrate ENLYFQF
1 | MGESLFKGPRDYNPISSSICHLTNESDGHTTSLYGIGFGPFIITNKHLFRRNNGTLVVQSLHGVFKVKDTTTLQQHLVDGRDMIIIRMPKDFPPFPQKLKFREPQREERICLVTTNFQTKSMSSMVSDTSCTFPSGDGIFWKHWIQTKDGQCGSPLVSTRDGFIVGIHSASNFTNTNNYFTSVPKNFMELLTNVEAQQWVSGWRLNADSVLWGGHKVFMVKPEEPFQPVKEATQL [Q194V] | 0.102 | 0.0546 | 0.067 | 0.066 | 0.0513 | 0.0869 | 0.0924 | 0.0645 | 0.111 | 0.0683 | 0.0589 | 0.0938 | – | – | – | – | –
2 | MGESLFKGPRDYNPISSSICHLTNESDGHTTSLYGIGFGPFIITNKHLFRRNNGTLVVQSLHGVFKVKDTTTLQQHLVDGRDMIIIRMPKDFPPFPQKLKFREPQREERICLVTTNFQTKSMSSMVSDTSCTFPSGDGIFWKHWIQTKDGQCGSPLVSTRDGFIVGIHSASNFTNTNNYFTSVPKNFMELLTNQGAQQWVSGWRLNADSVLWGGHKVFMVKPEEPFQPVKEATQL [E195G] | 0.135 | 0.067 | 0.123 | 0.0606 | 0.0552 | 0.0859 | 0.0873 | – | 0.0989 | 0.0633 | – | 0.0746 | 0.0656 | 0.0545 | 0.0684 | 0.0403 | –
3 | MGESLFKGPRDYNPISSSICHLTNESDGHTTSLYGIGFGPFIITNKHLFRRNNGTLVVQSLHGVFKVKDTTTLQQHLVDGRDMIIIRMPKDFPPFPQKLKFREPQREERICLVTTNFQTKSMSSMVSDTSCTFPSGDGIFWKHWIQTKDGQCGSPLVSTRDGFIVGIHSASNFTNTNNYFTSVPKNFMELLTNQEAEQWVSGWRLNADSVLWGGHKVFMVKPEEPFQPVKEATQL [Q197E] | 0.119 | – | 0.0765 | – | 0.0586 | 0.0918 | 0.0577 | 0.0516 | 0.0872 | 0.0618 | 0.0354 | 0.0669 | – | 0.0602 | – | 0.0511 | 0.0585
4 | MGESLFKGPRDYNPISSSICHLTNESDGHTTSLYGIGFGPFIITNKHLFRRNNGTLVVQSLHGVFKVKDTTTLQQHLVDGRDMIIIRMPKDFPPFPQKLKFREPQREERICLVTTNFQTKSMSSMVSDTSCTFPSGDGIFWKHWIQTKDGQCGSPLVSTRDGFIVGIHSASNFTNTNNYFTSVPKNFMELLTNQEAPQWVSGWRLNADSVLWGGHKVFMVKPEEPFQPVKEATQL [Q197P] | 0.132 | 0.103 | – | – | 0.0593 | – | 0.0704 | – | 0.101 | 0.0694 | 0.0592 | 0.0931 | 0.0957 | – | – | 0.0721 | 0.0997
5 | MGESLFKGPRDYNPISSSICHLTNESDGHTTSLYGIGFGPFIITNKHLFRRNNGTLVVQSLHGVFKVKDTTTLQQHLVDGRDMIIIRMPKDFPPFPQKLKFREPQREERICLVTTNFQTKSMSSMVSDTSCTFPSGDGIFWKHWIQTKDGQCGSPLVSTRDGFIVGIHSASNFTNTNNYFTSVPKNFMELLTNQEASQWVSGWRLNADSVLWGGHKVFMVKPEEPFQPVKEATQL [Q197S] | 0.105 | 0.0667 | 0.105 | 0.0568 | 0.0639 | 0.055 | 0.0604 | – | 0.0912 | 0.061 | – | – | – | 0.0432 | 0.0685 | – | –
6 | MGESLFKGPRDYNPISSSICHLTNESDGHTTSLYGIGFGPFIITNKHLFRRNNGTLVVQSLHGVFKVKDTTTLQQHLVDGRDMIIIRMPKDFPPFPQKLKFREPQREERICLVTTNFQTKSMSSMVSDTSCTFPSGDGIFWKHWIQTKDGQCGSPLVSTRDGFIVGIHSASNFTNTNNYFTSVPKNFMELLTNQEAQQMVSGWRLNADSVLWGGHKVFMVKPEEPFQPVKEATQL [W199M] | 0.0775 | 0.0635 | 0.0545 | 0.0428 | 0.0606 | 0.0494 | 0.0693 | 0.0577 | 0.0685 | 0.0391 | 0.0607 | 0.0535 | 0.0668 | 0.0609 | – | – | –
7 | MGESLFKGPRDYNPISSSICHLTNESDGHTTSLYGIGFGPFIITNKHLFRRNNGTLVVQSLHGVFKVKDTTTLQQHLVDGRDMIIIRMPKDFPPFPQKLKFREPQREERICLVTTNFQTKSMSSMVSDTSCTFPSGDGIFWKHWIQTKDGQCGSPLVSTRDGFIVGIHSASNFTNTNNYFTSVPKNFMELLTNQEAQQWRSGWRLNADSVLWGGHKVFMVKPEEPFQPVKEATQL [V200R] | 0.064 | 0.0607 | 0.0742 | – | – | – | – | – | 0.0823 | 0.0667 | – | – | 0.0583 | 0.0495 | – | – | –
8 | MGESLFKGPRDYNPISSSICHLTNESDGHTTSLYGIGFGPFIITNKHLFRRNNGTLVVQSLHGVFKVKDTTTLQQHLVDGRDMIIIRMPKDFPPFPQKLKFREPQREERICLVTTNFQTKSMSSMVSDTSCTFPSGDGIFWKHWIQTKDGQCGSPLVSTRDGFIVGIHSASNFTNTNNYFTSVPKNFMELLTNQEAQQWVSGWRANADSVLWGGHKVFMVKPEEPFQPVKEATQL [L205A] | 0.0803 | – | – | 0.0614 | 0.0466 | – | 0.0547 | – | 0.0856 | 0.0674 | 0.0682 | – | 0.062 | 0.0747 | – | 0.0837 | –
9 | MGESLFKGPRDYNPISSSICHLTNESDGHTTSLYGIGFGPFIITNKHLFRRNNGTLVVQSLHGVFKVKDTTTLQQHLVDGRDMIIIRMPKDFPPFPQKLKFREPQREERICLVTTNFQTKSMSSMVSDTSCTFPSGDGIFWKHWIQTKDGQCGSPLVSTRDGFIVGIHSASNFTNTNNYFTSVPKNFMELLTNQEAQQWVSGWRDNADSVLWGGHKVFMVKPEEPFQPVKEATQL [L205D] | 0.114 | – | – | – | – | 0.056 | – | 0.0537 | 0.0794 | – | – | 0.0528 | – | 0.03 | – | – | –
